Measurements as given in PMC4336329 (PLoS ONE, 2015).
Out of some 310,000 compounds screened, about 14,000 (4.5%) showed an effect of 50% or more. The effect is printed as a negative number. The list shows a part of the results.

Biological target: human ether-à-go-go-related gene (hERG) potassium channel (human, UniProt Q12809)
Experiment: primary screen, population patch clamp on CHO cells stably expressing hERG
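Further: peak tail current of the secondary pulse compared with the same well before compound.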

Sequence of human ether-à-go-go-related gene (hERG) potassium channel (Q12809 whole entry, looked up): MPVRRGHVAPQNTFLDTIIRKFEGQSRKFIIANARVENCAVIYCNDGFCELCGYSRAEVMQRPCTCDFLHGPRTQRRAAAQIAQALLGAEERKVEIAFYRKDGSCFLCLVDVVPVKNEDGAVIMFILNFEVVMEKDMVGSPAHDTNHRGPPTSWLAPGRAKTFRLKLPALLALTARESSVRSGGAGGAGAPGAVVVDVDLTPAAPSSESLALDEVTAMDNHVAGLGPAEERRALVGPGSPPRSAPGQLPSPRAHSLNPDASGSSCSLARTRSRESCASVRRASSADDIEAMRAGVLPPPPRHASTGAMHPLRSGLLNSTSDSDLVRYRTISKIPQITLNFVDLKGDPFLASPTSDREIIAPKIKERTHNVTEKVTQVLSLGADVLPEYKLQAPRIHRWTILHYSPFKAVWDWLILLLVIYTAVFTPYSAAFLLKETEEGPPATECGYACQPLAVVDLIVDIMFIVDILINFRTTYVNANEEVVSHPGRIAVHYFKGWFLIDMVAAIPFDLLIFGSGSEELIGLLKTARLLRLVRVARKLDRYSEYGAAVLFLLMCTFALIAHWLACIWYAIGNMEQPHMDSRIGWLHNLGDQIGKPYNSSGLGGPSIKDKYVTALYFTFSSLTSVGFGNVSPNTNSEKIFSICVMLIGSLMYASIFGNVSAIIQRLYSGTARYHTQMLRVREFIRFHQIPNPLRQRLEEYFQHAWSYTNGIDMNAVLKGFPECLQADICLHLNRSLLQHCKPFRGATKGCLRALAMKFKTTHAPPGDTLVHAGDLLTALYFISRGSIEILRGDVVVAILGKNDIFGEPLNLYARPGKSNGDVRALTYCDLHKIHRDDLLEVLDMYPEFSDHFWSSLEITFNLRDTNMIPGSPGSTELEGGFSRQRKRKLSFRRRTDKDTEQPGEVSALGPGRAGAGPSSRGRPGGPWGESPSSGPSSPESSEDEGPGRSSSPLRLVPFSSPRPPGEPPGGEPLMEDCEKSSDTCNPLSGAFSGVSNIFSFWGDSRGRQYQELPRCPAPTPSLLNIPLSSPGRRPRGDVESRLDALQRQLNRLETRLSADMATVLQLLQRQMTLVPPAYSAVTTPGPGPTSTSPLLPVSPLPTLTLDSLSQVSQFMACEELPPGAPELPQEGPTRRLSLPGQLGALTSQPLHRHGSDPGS

SMILES	hERG current change (%, negative = inhibition) at 10uM
O=C(Nc1nccs1)c1nc(-c2ccccc2)n(-c2ccccc2)n1	6.62%
OCC[C@@H]1C[C@@H](O)[C@H](O)[C@]2(CCCCO2)O1	16.8%
COc1ccc(C2=NN(C(=O)c3ccccc3)C(c3ccccc3)C2)c(O)c1 (centres unmarked)	16.9%
Cc1ccc(NC(=O)CCNCc2ccco2)cc1S(=O)(=O)N(C)C.O=C(O)C(=O)O	-5.26%
O=C(CN1CCc2ccccc2C1)NCC(=O)Nc1ccc(F)cc1	13.5%
CC(Sc1cccc2cccc(C(=O)O)c12)C(=O)O (centres unmarked)	22.5%
O=C(Nc1ccc(Br)cn1)c1ccc([N+](=O)[O-])cc1Cl	-4.01%
O=C(C1=C(O)C(=O)N(CC2CCCO2)C1c1ccccc1F)c1ccco1 (centres unmarked)	6.62%
CCS(=O)(=O)c1nc(S(=O)(=O)c2ccc(C)cc2)c(N2CCN(C)CC2)s1	-6.55%
CCOCCCN(C)C1CCN(C(=O)c2oc3ccccc3c2NC(=O)c2ccc([N+](=O)[O-])cc2)CC1	-75.9%
CC(C)COc1ccc(C(=O)OCC(=O)N(C)CC(=O)Nc2ccc(F)cc2)cc1	6.57%
CC1(C)CC(=O)c2c(nc(SCC(=O)Nc3nsc(-c4ccccc4)n3)c(C#N)c2-c2ccccc2)C1	8.85%
Nc1cccc2c1C(=O)N(C(=O)/C=C/c1ccc(F)cc1)C2=O	-13.7%
CSc1ccc(-c2nc(CSCC(=O)NCCCN3CCOCC3)c(C)o2)cc1	-9.96%
C=CCN1C(=O)c2ccccc2Sc2ccc(C(=O)NCCC)cc21	-15.5%
COCCn1c(SCC(=O)NC(=O)NCc2ccccc2)nc2ccccc21	-28.7%
C1CCCC(N2CCNCC2)CC1.Cl	-6.79%
O=C(CN1C(=O)NC2(CCCCC2)C1=O)N(Cc1ccco1)Cc1cccs1	-23.3%
Cc1ccc(S(=O)(=O)N2CCN(C(=O)N3CCOCC3)CC2)c(C)c1	-2.14%

SMILES	hERG current change (%, negative = inhibition) at 10uM
CCOC(=O)C1CCN(c2cc(=O)n(Cc3ccc(F)cc3)c(=O)[nH]2)CC1	2.86%
O=C(COC(=O)CCOc1ccccc1)NCc1ccco1	-6.91%
CCOC(=O)c1nn(-c2ccc(Cl)cc2)cc1O	1.8%
COc1ccc(OCCNC(=O)/C=C/c2ccccc2)cc1	-2.37%
COCCCn1c(SCC(=O)NC2CCCC2)nnc1-c1ccncc1	0.367%
COc1ccc(O)c(CN2CCCC(N3CCN(c4ccccc4OC)CC3)C2)c1 (centres unmarked)	-11%
Clc1ccc(-c2nnc(-c3ccccc3)c(-c3ccccc3)n2)cc1	9.87%
COC(=O)c1cn(C(=O)c2ccc(C)c(C)c2)c2ccccc12	7.09%
CNC(=O)c1cccc(NC(=O)c2cc(-c3ccccc3)nc3c2cnn3C(C)C)c1	1.39%
COC(=O)c1ccccc1NC(=O)c1cc[n+](C)cc1	11.8%
O=C(c1cc(C2CC2)nn1-c1ccccc1)N1CCN(S(=O)(=O)c2cccc(F)c2)CC1	-28.1%
COc1cccc(CNC(=O)CCC2CCCN(Cc3ccc(OC(F)F)cc3)C2)c1 (centres unmarked)	-76.6%
CCCC(C(=O)NCc1ccco1)N(C(=O)CNS(=O)(=O)c1ccccc1)c1ccccc1OC (centres unmarked)	-27.4%
Cc1ccc(N(C)C(=O)c2cnn(-c3ccccc3)c2C)c(C)c1	-19.6%
Cc1cc(Cl)ccc1NNC(=O)CCc1ccccc1	1.19%
Cc1cnc([N+](=O)[O-])n1CCOC(=O)NC(=O)c1ccc(C(F)(F)F)cc1	-40.2%
Cc1nc2ncnn2c(N2CCN(c3cccc(C(F)(F)F)c3)CC2)c1C	-64.1%
COc1ccc(NC(=O)COc2cccc(-n3cnnn3)c2)cc1Cl	24%
COCCCNC(=O)C1CCCN(S(=O)(=O)c2cccc3nsnc23)C1 (centres unmarked)	-0.124%

SMILES	hERG current change (%, negative = inhibition) at 10uM
CC(C)(C)C(C(=O)n1cccc1C#N)c1ccccc1 (centres unmarked)	6.3%
O=C(CSc1nnc(-c2ccc3c(c2)OCO3)o1)Nc1ncc(Cl)cc1Cl	-5.9%
COc1cccc(CNC(=O)CCNS(=O)(=O)c2cccc3nonc23)c1	12.4%
Oc1c(Cl)cc(Cl)cc1C1Nc2ccccc2-n2cccc21 (centres unmarked)	12.7%
CC12CCC(=O)N1C(C(=O)Nc1nnc(SCc3ccccc3)s1)CS2 (centres unmarked)	-4.56%
Cc1cc(C)n(C(=O)c2ccncc2)n1	15.8%
COc1ccc(OC)c(-c2csc(NC(=O)CSCc3c(C)noc3C)n2)c1	-6.01%
COc1cccc(OC)c1C(=O)OCC(=O)NC1CCCCCC1	-2.11%
COc1cccc(C2C(C(=O)NCc3ccccc3)=C(C)Nc3ncnn32)c1 (centres unmarked)	-11.3%
CN(CCOc1ccc(Cl)cc1)C(=O)c1cc([N+](=O)[O-])ccc1N1CCOCC1	-66.7%
Fc1ccc(NC2=NCCS2)cc1Cl	-1.62%
O=C(CSc1nnc2ccccn12)NCc1cccs1	21.4%
Cc1[nH]c2ccccc2c1SCc1n[nH]c(=S)n1C	19.3%
COc1ccc(CNCc2cccc(C)c2)cc1.O=C(O)C(=O)O	-15.2%
CCOc1ccccc1N(C(=O)Cn1nnnc1-c1ccc(C)o1)C(CC)C(=O)NC(C)(C)C (centres unmarked)	-19.7%
c1ccc(-n2cccc2)c(N2CCCCC2)c1	3.76%
CC(CN1CCN(C)CC1)OC(=O)c1ccccc1.Cl (centres unmarked)	7.83%
O=C(CSc1nc2ccccc2n1S(=O)(=O)c1cccc([N+](=O)[O-])c1)NCCc1ccccc1	-7.8%
